Data from patent publication US20190194315A1 (Novartis, published 2019).
Read-outs that look alike come from different tables or passages of the source.

B1: NOV169N31Q-152/375C-77 (antibody, human IgG1, kappa)
heavy: QVQLQQSGPGLVKPSQTLSLTCAISGDSVSSQSAAWNWIRQSPSRGLEWLGRIYYRSKWYNDYALSVKSRITINPDTSKNQFSLQLNSVTPEDTAVYYCARGEGYGREGFAIWGQGTLVTVSSASTKGPSVFPLAPSSKSTSGGTAALGCLVKDYFPCPVTVSWNSGALTSGVHTFPAVLQSSGLYSLSSVVTVPSSSLGTQTYICNVNHKPSNTKVDKRV[human IgG1 Fc with S375C (EU numbers) skipped]
light: DIQMTQSPSSLSASVGDRVTITCRASQTISNTLAWYQQKPGKAPKLLIYAASNLQSGVPSRFSGSGSGTDFTLTISSLQPEDFATYYCQQYLSWFTFGQGTKVEIKRTVAAPSVFIFPPSDEQLKSGTASVVCLLNNFYPREAKVQWKVDNALQSGNSQESVTEQDSKDSTYSLSSTLTLSKADYEKHKVYACEVTHQGLSSPVTKSFNRGEC
modifications: compound 77 on engineered Cys 152 and Cys 375 (EU numbering; positions 158 and 381 of SEQ ID NO 130) by thiol-maleimide linkage; DAR 3.6 to 4.0
B2: NOV169N31Q-KB-22 (antibody, human IgG1, kappa)
heavy: QVQLQQSGPGLVKPSQTLSLTCAISGDSVSSQSAAWNWIRQSPSRGLEWLGRIYYRSKWYNDYALSVKSRITINPDTSKNQFSLQLNSVTPEDTAVYYCARGEGYGREGFAIWGQGTLVTVSSASTKGPSVFPLAPSSKSTSGGTAALGCLVKDYFPEPVTVSWNSGALTSGVHTFPAVLQSSGLYSLSSVVTVPSSSLGTQTYICNVNHKPSNTKVDKRV[human IgG1 Fc skipped]
light: DIQMTQSPSSLSASVGDRVTITCRASQTISNTLAWYQQKPGKAPKLLIYAASNLQSGVPSRFSGSGSGTDFTLTISSLQPEDFATYYCQQYLSWFTFGQGTKVEIKRTVAAPSVFIFPPSDEQLKSGTASVVCLLNNFYPREAKVQWKVDNALQSGNSQESVTEQDSKDSTYSLSSTLTLSKADYEKHKVYACEVTHQGLSSPVTKSFNRGEC
modifications: interchain disulfide cysteine is part of the ketone bridge carrying compound 22; interchain disulfide cysteines re-bridged with 1,3-dichloroacetone (ketone bridge) and oxime-linked to auristatin compound 22; average DAR 3.77

Columns and labels:
[1] = target: T1, Human P-cadherin on the surface of tumor cell lines (human, UniProt P22223 108-829); assay: cell-based or functional assay
T1 sequence (P22223 108-829 limits assumed): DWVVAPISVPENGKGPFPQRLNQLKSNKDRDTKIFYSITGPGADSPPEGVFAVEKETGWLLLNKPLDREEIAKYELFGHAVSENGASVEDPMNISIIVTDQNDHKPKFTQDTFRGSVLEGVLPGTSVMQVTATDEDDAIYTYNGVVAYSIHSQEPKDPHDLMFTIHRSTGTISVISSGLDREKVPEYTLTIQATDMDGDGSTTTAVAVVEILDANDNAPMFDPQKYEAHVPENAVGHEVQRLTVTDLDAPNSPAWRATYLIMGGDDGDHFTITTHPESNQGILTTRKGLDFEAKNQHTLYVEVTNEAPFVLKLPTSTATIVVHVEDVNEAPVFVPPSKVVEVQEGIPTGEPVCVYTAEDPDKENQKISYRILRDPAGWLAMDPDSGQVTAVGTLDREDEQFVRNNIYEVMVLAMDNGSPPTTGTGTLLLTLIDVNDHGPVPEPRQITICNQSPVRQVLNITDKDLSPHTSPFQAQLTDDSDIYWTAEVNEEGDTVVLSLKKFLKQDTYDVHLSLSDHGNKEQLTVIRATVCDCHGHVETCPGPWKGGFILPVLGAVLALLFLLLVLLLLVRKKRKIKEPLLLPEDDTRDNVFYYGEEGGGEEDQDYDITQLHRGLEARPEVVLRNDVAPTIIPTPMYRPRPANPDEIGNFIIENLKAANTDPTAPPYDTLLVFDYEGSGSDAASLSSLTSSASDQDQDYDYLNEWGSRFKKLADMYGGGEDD

[2] = target: T1, Human P-cadherin on the surface of …; assay: cell-based or functional assay; remark: listed apart in the source

Binder	IC50 (nM), CellTiterGlo proliferation/survival, HCC70 cells [1] [nM]	IC50 (nM), CellTiterGlo proliferation/survival, HCC1806 cells [1] [nM]	IC50 (nM), CellTiterGlo proliferation/survival, HCC1954 cells [1] [nM]	IC50 (nM), CellTiterGlo proliferation/survival, Scaber cells [1] [nM]	IC50 (nM), CellTiterGlo proliferation/survival, HCC70 cells [2] [nM]	IC50 (nM), CellTiterGlo proliferation/survival, HCC1806 cells [2] [nM]	IC50 (nM), CellTiterGlo proliferation/survival, HCC1954 cells [2] [nM]	IC50 (nM), CellTiterGlo proliferation/survival, Scaber cells [2] [nM]
B1	1.19	9.53	0.896	4.08				
B2					0.399	1.09	0.0759	0.946
